According to PubChem BioAssay AID1259407 (Chemical Carcinogenesis Research Information System (CCRIS), 2018):
“Also recorded” adds a separate entry of the source. A number of entries come with more than one value. They are shown here; other results are not. How the calls were made is not given here. There may be further records. The records of an entry differ for a reason that is not stated; they may come from other doses, times, organisms or constructs than stated. What stands in brackets tells the records apart. A, B and so on number the origins entry by entry. Counts like (3×) say how often a value occurs here.

Tested on: CCRIS mutagenicity, Ames/micronucleus/aberration tests
Assay: CCRIS mutagenicity studies
[1] = End Point: IN VITRO CHROMOSOMAL ABERRATIONS, Test System: CHINESE HAMSTER LUNG CELLS (CHL), Metabolic Activation: NONE
[2] = Test System: Ames Salmonella typhimurium, Strain/Indicator: TA100, Metabolic Activation: None, Method: Preincubation
[3] = Test System: MOUSE LYMPHOMA, Strain/Indicator: L5178Y (TK+/TK-), Metabolic Activation: RAT, LIVER, S-9, AROCLOR 1254, Method: SUSPENSION/PLATE
[4] = Test System: MOUSE LYMPHOMA, Strain/Indicator: L5178Y (TK+/TK-), Metabolic Activation: NONE, Method: SUSPENSION/PLATE
[5] = End Point: IN VITRO CHROMOSOMAL ABERRATIONS, Test System: CHL CELLS, Metabolic Activation: NONE
[6] = Test System: AMES SALMONELLA TYPHIMURIUM, Strain/Indicator: TA1535, Metabolic Activation: NONE, Method: STANDARD PLATE
[7] = Test System: AMES SALMONELLA TYPHIMURIUM, Strain/Indicator: TA1537, Metabolic Activation: NONE, Method: STANDARD PLATE
[8] = Test System: AMES SALMONELLA TYPHIMURIUM, Strain/Indicator: TA100, Metabolic Activation: NONE, Method: STANDARD PLATE
[9] = End Point: In vitro chromosomal aberrations, Test System: Chinese hamster lung (CHL/IU) cells, Metabolic Activation: None
[10] = Test System: AMES SALMONELLA TYPHIMURIUM, Strain/Indicator: TA98, Metabolic Activation: NONE, Method: PREINCUBATION
[11] = Test System: AMES SALMONELLA TYPHIMURIUM, Strain/Indicator: TA98, Metabolic Activation: NONE, Method: STANDARD PLATE
[12] = Test System: AMES SALMONELLA TYPHIMURIUM, Strain/Indicator: TA100, Metabolic Activation: NONE, Method: PREINCUBATION
[13] = End Point: IN VITRO CHROMOSOMAL ABERRATIONS, Test System: CHO CELLS, Metabolic Activation: NONE

Question: For `Oc1c(Cl)ccc(Cl)c1Cl`, which mutagenic call [1] is on record?
Answer: The mutagenic call was “inactive; negative; authors report results from 48 hr treatment time as inconclusive; also recorded: inactive; negative”.

Question: Which mutagenic call (Test System: AMES SALMONELLA TYPHIMURIUM, Strain/Indicator: TA1538, Metabolic Activation: RAT, LIVER, S-9, AROCLOR 1254, Method: STANDARD PLATE) does the source give for `Nc1ccc2c(c1)C(=O)c1ccc(N)cc1C2=O` here?
Answer: The mutagenic call was “active; positive and inactive; negative”.

Question: Which mutagenic call (Test System: AMES SALMONELLA TYPHIMURIUM, Strain/Indicator: TA100, Metabolic Activation: RAT, LIVER, S-9, AROCLOR 1254, Method: STANDARD PLATE) does the source give for `[N-]=[N+]=[N-]` here?
Answer: Its mutagenic call is “inactive; negative [study A] and active; positive [study B]”.

Question: What about the mutagenic call [2] of the same compound?
Answer: Its mutagenic call is “active; positive (decrease in mutagenicity when 0.99-;5.90 mg/plate of chloroform extrac [study A]; also recorded: active; positive (decrease in mutagenicity when 1.82-7.30 mg/plate of methanol extract o [study A]; also recorded: active; positive [study B]”.

Question: `O=C([O-])c1ccc2ccccc2c1.O=C([O-])c1ccc2ccccc2c1.[Pb+2]` was tested. Which mutagenic call [3] did it give?
Answer: The mutagenic call was “active; positive. reevaluation of results: positive [study A]; also recorded: active; positive [study B]”.

Question: Which mutagenic call [4] does the source give for `CC=O` here?
Answer: Its mutagenic call is “active; positive. reevaluation of results: positive [study A]; also recorded: active; positive [study B]”.

Question: What does the source list for `O=C([O-])c1ccccn1.O=C([O-])c1ccccn1.O=C([O-])c1ccccn1.[Cr+3]`?
Answer: mutagenic call [4]: active; positive [study A]; also recorded: active; positive. reevaluation of results: positive [study B]; mutagenic call (Test System: MOUSE LYMPHOMA, Strain/Indicator: L5178Y (TK+/TK-), Metabolic Activation: RAT LIVER S-9, AROCLOR 1254, Method: SUSPENSION/PLATE): active; positive [study A]; also recorded: active; positive. reevaluation of results: positive [study B]

Question: Which results are given for `C=CCCl`?
Answer: mutagenic call [5]: active; positive (structural changes); authors report equivocal results for ploidy chang (2×); also recorded: active; positive (structural and ploidy changes); mutagenic call (Test System: Ames Salmonella typhimurium, Strain/Indicator: TA98, Metabolic Activation: None, Method: Preincubation): inactive; negative; also recorded: active; positive; also recorded: inactive; negative. retest results differed from initial test results; mutagenic call [2]: inactive; negative and active; positive; mutagenic call (Test System: Ames Salmonella typhimurium, Strain/Indicator: TA1535, Metabolic Activation: None, Method: Preincubation): active; positive (*only at dose where growth inhibition observed); also recorded: active; positive; mutagenic call (Test System: Ames Salmonella typhimurium, Strain/Indicator: TA1535, Metabolic Activation: Rat, Liver, S9, Sodium phenobarbital and 5,6-benzoflavone (10%), Method: Preincubation): inactive; negative; also recorded: active; positive (weak response); also recorded: inactive; negative. retest results differed from initial test results; mutagenic call (Test System: E. coli, Strain/Indicator: WP2uvrA/pKM101, Metabolic Activation: None, Method: Preincubation): active; positive and active; positive (results of two tests); mutagenic call (Test System: E. coli, Strain/Indicator: WP2uvrA/pKM101, Metabolic Activation: Rat, Liver, S9, Sodium phenobarbital and 5,6-benzoflavone (10%), Method: Preincubation): active; positive and active; positive (results of two tests)

Question: `S.S.S.[As].[As]` was tested. Which mutagenic call (End Point: IN VIVO MICRONUCLEUS, Test System: BONE MARROW POLYCHROMATIC ERYTHROCYTES, Species: MOUSE, Strain/Sex: CBA/MALE, Route: ORAL) did it give?
Answer: The mutagenic call was “inactive; negative (2×) and active; positive”.

Question: What does the source list for `CC/C(=C(/CC)c1ccc(O)cc1)c1ccc(O)cc1`?
Answer: mutagenic call [6]: inactive; negative; toxicity at 50 ug/plate [study A]; also recorded: inactive; negative [study B]; mutagenic call [7]: inactive; negative; toxicity at 50 ug/plate [study A]; also recorded: inactive; negative [study B]; mutagenic call [3]: active; positive [study A] and active; positive [study B] and inactive; negative [study C]; mutagenic call (Test System: MOUSE LYMPHOMA, Strain/Indicator: L5178Y (TK+/TK-), Metabolic Activation: RAT, LIVER, S-9, Method: SUSPENSION/PLATE): inactive; negative [study A] and active; positive [study B]

Question: For `O=C(O)/C(Cl)=C(\C(=O)O)C(Cl)Cl`, which mutagenic call [8] is on record?
Answer: The mutagenic call was “active; positive [study A] and inactive; negative [study B]”.

Question: `C1N2CN3CN1CN(C2)C3` was tested. Which mutagenic call [9] did it give?
Answer: Its mutagenic call is “active; positive (structural changes and ploidy) (2×); also recorded: active; positive (structural changes)”.

Question: What about the mutagenic call [10] of the same compound?
Answer: The mutagenic call was “active; positive [study A] and inactive; negative [study B] and inactive; negative [study C]”.

Question: `CCOP(=O)(OCC)O/C(=C\Cl)c1ccc(Cl)cc1Cl` was tested. Which mutagenic call [8] did it give?
Answer: Its mutagenic call is “active; positive [study A] and inactive; negative [study B]”.

Question: For `CC(=O)NO`, which mutagenic call [8] is on record?
Answer: The mutagenic call was “inactive; negative [study A] and active; positive [study B]”.

Question: `CCc1ccco1` was tested. Which mutagenic call (Test System: Mouse lymphoma, Strain/Indicator: L5178Y (tk+/tk-), Metabolic Activation: None, Method: Suspension/plate) did it give?
Answer: Its mutagenic call is “inactive; negative and active; positive”.

Question: `Nc1ccccc1S` was tested. Which mutagenic call [9] did it give?
Answer: Its mutagenic call is “active; positive (structural changes and ploidy) (2×); also recorded: active; positive (structural changes and ploidy). weak response”.

Question: And the mutagenic call [10]?
Answer: Its mutagenic call is “inactive; negative and active; positive”.

Question: With `C1CC[C@H]2O[C@H]2C1` as the compound, how does the mutagenic call [11] read?
Answer: Its mutagenic call is “inactive; negative [study A] and active; positive [study B]”.

Question: How did the mutagenic call (Test System: AMES SALMONELLA TYPHIMURIUM, Strain/Indicator: TA100, Metabolic Activation: NONE, Method: MICROSUSPENSION) turn out when `COc1cc2c(c3oc(=O)c4c(c13)CCC4=O)[C@@H]1C=CO[C@@H]1O2` was run?
Answer: The mutagenic call was “inactive; negative and active; positive”.

Question: And the mutagenic call [12]?
Answer: Its mutagenic call is “active; positive (2×) and inactive; negative”.

Question: What about the mutagenic call [8] of the same compound?
Answer: The mutagenic call was “active; positive [study A] and active; positive [study B] and inactive; negative [study C]”.

Question: Which mutagenic call [11] does the source give for `N#Cc1ccc(/C=C/c2ccc([N+](=O)[O-])cc2)cc1` here?
Answer: The mutagenic call was “active; positive [study A] and inactive; negative [study B]”.

Question: What about the mutagenic call [8] of the same compound?
Answer: The mutagenic call was “active; positive [study A] and inactive; negative [study B]”.

Question: What does the source list for `C[C@]12C=CC3=C4CCC(=O)C=C4CC[C@H]3[C@@H]1CC[C@@H]2O`?
Answer: mutagenic call [6]: inactive; negative; toxicity at 2000 and 3000 ug/plate [study A]; also recorded: inactive; negative [study B]; mutagenic call [7]: inactive; negative; toxicity at 2000 and 3000 ug/plate [study A]; also recorded: inactive; negative [study B]; mutagenic call (Test System: AMES SALMONELLA TYPHIMURIUM, Strain/Indicator: TA1538, Metabolic Activation: NONE, Method: STANDARD PLATE): inactive; negative; toxicity at 3000 ug/plate [study A]; also recorded: inactive; negative [study B]

Question: For `Nc1ccc(Oc2ccc(N)cc2)cc1`, which mutagenic call [13] is on record?
Answer: The mutagenic call was “inactive; negative; positive response at 160 ug/ml; precipitation occurred at 1600 and 200; also recorded: active; positive; precipitation occurred at 2000 and 3000 ug/ml (2×)”.

Question: What about the mutagenic call [10] of the same compound?
Answer: Its mutagenic call is “inactive; negative [study A] and active; positive [study B] and inactive; negative [study C]”.

Question: And the mutagenic call [12]?
Answer: Its mutagenic call is “inactive; negative [study A] and active; positive [study B] and inactive; negative [study C]”.

Question: Which results are given for `CC(=O)CN(C)N=O`?
Answer: mutagenic call (Test System: AMES SALMONELLA TYPHIMURIUM, Strain/Indicator: TA100, Metabolic Activation: HAMSTER, LIVER, S-9, Method: PREINCUBATION): inactive; negative [study A] and active; positive [study B]; mutagenic call (Test System: AMES SALMONELLA TYPHIMURIUM, Strain/Indicator: TA100, Metabolic Activation: RAT, LIVER, S-9, Method: PREINCUBATION): inactive; negative [study A] and active; positive [study B]

Question: How did the mutagenic call (Test System: AMES SALMONELLA TYPHIMURIUM, Strain/Indicator: TA98, Metabolic Activation: RAT, LIVER, S-9, AROCLOR 1254, Method: STANDARD PLATE) turn out when `Cc1ccccc1N` was run?
Answer: Its mutagenic call is “active; positive [study A] and inactive; negative [study B]”.

Question: For `CC(C)Oc1ccc(Nc2ccccc2)cc1`, which mutagenic call [1] is on record?
Answer: Its mutagenic call is “inactive; negative; authors describe highest dose as inconclusive; also recorded: active; positive at highest dose; also recorded: inactive; negative; authors describe results at highest dose as inconclusive”.

Question: And the mutagenic call [5]?
Answer: Its mutagenic call is “inactive; negative (2×) and active; positive (structural changes)”.

Question: What about the mutagenic call [13] of the same compound?
Answer: The mutagenic call was “inactive; negative and active; positive (structural changes) (2×)”.

Question: With `Nc1cccc(N)n1` as the compound, how does the mutagenic call (Test System: AMES SALMONELLA TYPHIMURIUM, Strain/Indicator: TA1537, Metabolic Activation: NONE, Method: PREINCUBATION) read?
Answer: The mutagenic call was “active; positive and inactive; negative”.

Question: Which mutagenic call [4] does the source give for `Nc1ncn([C@@H]2O[C@H](CO)[C@@H](O)[C@H]2O)c(=O)n1` here?
Answer: The mutagenic call was “active; positive [study A]; also recorded: active; positive. reevaluation of results: positive [study B]”.

Question: `CC(C)(OO)c1ccccc1` was tested. Which mutagenic call (Test System: AMES SALMONELLA TYPHIMURIUM, Strain/Indicator: TA102, Metabolic Activation: NONE, Method: STANDARD PLATE) did it give?
Answer: Its mutagenic call is “active; positive [study A] and inactive; negative [study B]”.
